# Experimental data: the supplement of paper PMC11417369
# The other results are listed elsewhere or left out.
# System: PF3D7_0420300 AP2 domain 1 (GST-tagged)
# Experiment: gcPBM binding intensity (ln(normalized median fluorescence intensity)); higher = stronger DNA binding
# Method in brief: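 Alexa488 anti-GST antibody, scanned at 488 nm, detected GST-tagged P. falciparum DNA-binding domains that had been expressed in E. coli and incubated for 1 h on an Agilent 4 × 180k array. The array carried primer-extended double-stranded 36-bp intergenic genomic probes and negative controls. Binding intensity is the highest Masliner-normalised natural-log median intensity across replicate spots of either orientation of each probe.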
row,Sequence,gcPBM binding intensity (ln)
1,AATTTAATATAATGCACACATAAAAAAAAAAAATTC [CACACA_site1504],9.48
2,AGCTTGTGGATGCAGGTGCTACATTTGTTCTATAAT [GTGCAC_site9645],9.29
3,CGTATATCACCAACTAGTACATATAAATAAATAAAT [XGTACX_site8837],9.31
4,GTACCTATTTCATACACACACACACGCAAACAAACA [CACACA_site6590],10.3
5,ATATAGATTCGACACACACACAAAAAAAAAAAAAAA [CACACA_site7677],9.74
6,TGGTATATTATTTTTTGTACACATAAATGAAACATT [XGTACX_site5345],9.19
7,ATATATATATATATATGTACATATTATTATTTTGAT [XGTACX_site4752],9.13
8,ATATATATAATAAACACACACATATACATAGATGTA [CACACA_site5841],9.78
9,ATATATATTATATGCACACTAATAAGACTATTTAAA [CACACA_site3554],9.23
10,GTATATGTACTATACGCACACACACCCACATATATA [CACACA_site9062],9.98
11,TTGAGTTGTATAAAAAGTACAAGGTTTTAACTAAAT [XGTACX_site1447],9.13
12,TTATAATATTCATAAGGTACAGTTTATATATGTTAT [XGTACX_site8442],9.3
13,AATAATCATGATCAAAGTACGTATGATTAAAAAAAA [XGTACX_site4916],9.38
14,TATATGTAAATGGACACACACATATATATATATATA [CACACA_site3659],9.4
15,TATGACCTTAGTAATTGTACACAAACATATTAATAT [XGTACX_site3340],9.27
16,GAGTATATGATATATATATATATATAAAAAAAAAAA [GTGCAC_negctrl_site99],9.21
17,ACATATATATAATATATATATCATCATATTTTCTTA [CACACA_negctrl_site853],9.22
18,ATATGTGTTATTTATACATGCAGAAGAATATCTATT [TGCATGCA_site828],9.31
19,TGTGTGTGTATATGTGTGCACATATAAAATAGAAGA [GTGCAC_site9714],10.2

row,Sequence,gcPBM binding intensity (ln)
1,CATACATTTAAAAAGTGTACGTATATGAAAAAAGGA [XGTACX_site6512],9.34
2,ACCTTTGTAGTTGGTCCACACACATATATGGAAGAA [CACACA_site8351],9.52
3,CTCAATATTATTACTACACACAAATTAAAATTTTCC [CACACA_site4203],9.45
4,AGAGAATAAATATAAAGTACATATATAAATATATAT [XGTACX_site5055],9.33
5,ACATATACAAAACACACACACAACGTTTTAATAAAT [CACACA_site1979],10.1
6,ATGTTATAAATCTTAATATATATATGCAAAAGAGAA [XGTACX_negctrl_site521],9.31
7,GTATATAAAAATTCATGTACATATTATTATTTTTAA [XGTACX_site658],9.13
8,TTGTACATCTTTTGCACACGTAATGTTATTATAATA [CACACA_site1258],9.49
9,TTATAACTTTTGAGCACACACAAGCATATAAATATA [CACACA_site6933],9.47
10,AAATACTGTAAAAAAGCATGCCACTAATAATAATTA [TGCATGCA_site759],9.38
11,TCATTTTTTTGTTTGGTGCGACTTGAAAATTTGATT,9.17
12,ATAAAGATTAATTCAAGTACACATCAAATACTACAA [XGTACX_site8794],9.36
13,TATATATATTTATGTACACACATCAATCATATTAAC [CACACA_site5127],9.5
14,CATATACATATATGTAGTACGTGTTCTTCTATATGA [XGTACX_site8344],9.37
15,TACATATACAGACACACACACACACCCCCACAAAAA [CACACA_site495],10.3
16,ATTAATATGAAACGATTATAAGAAAGAAAAGAAATG [GTGCAC_negctrl_site701],9.41
17,AAATTGAATTAGTTAACACACAACTTTTATTTCATA [CACACA_site2840],9.36
18,GTTATATGTTATATATATATATATATATATATATAT [TGCATGCA_negctrl_site428],8.91
19,AAATTAATAAGTCACACACACATATATAATATATAT [CACACA_site799],10.1

row,Sequence,gcPBM binding intensity (ln)
1,AATATATACATTTATATACACACCTATATATATATA [CACACA_site1972],9.45
2,AGCATCATTTTACACACATGCAAATGTAAAATAGGA [TGCATGCA_site460],9.43
3,TTATATATAATATATACACACACATGTATATATAAA [CACACA_site8603],9.45
4,ATTACATACGAGCACACGTAAAAGTATAATATAAAA [GTGCAC_negctrl_site446],9.27
5,TTTGTATTGTGCAGATGTACATTATAATATTGGATT [XGTACX_site5033],9.21
6,TATGTTCCATTTTTTGGTACACATACAATAACTGCT [XGTACX_site2256],9.11
7,AACAAATACAAAGAATAGTCATCTGAATGGTGTTAT [GTGCAC_negctrl_site685],9.53
8,AAAAAAAAAAAAAGTACACACATACCTATAAATATA [CACACA_site6937],9.8
9,TTTACCTCTTCAATGGTGCAATAACTCAAAAATTTG,8.97
10,TTTTTATTTTATTAGTGTACTTTATATTTAACAATA [XGTACX_site1175],9.36
11,ATAAATAAAATAAAAGCACACAAAATGTAAATAATT [CACACA_site8895],9.84
12,TATATATTTATAAATGAACACACACCCAATTTGAAT [CACACA_site9113],9.85
13,TTTATATACATTTTAAATTTTAATGTAACCCATGGG [TGCATGCA_negctrl_site115],8.75
14,TTTATTTTTATAAGAGCATGCACTGTTTAAAATGGT [TGCATGCA_site628],8.98
15,TATATACCTATATACACACACATATATAAATAAATA [CACACA_site7341],9.86
16,TATTTCTGATTACATACACACATATACAGATATGAC [CACACA_site7490],9.48
17,TTGTAAAACTTATAATGTACATTTTTTTTTTTTTTT [XGTACX_site5398],9.06
18,AGGGACATCTATATCACACACAAAAATTAGTCCCTT [CACACA_site7330],9.5
19,TTTTTTTTTTTTTGCACACACATTGAATTATTATTC [CACACA_site197],9.66
